This is one part of the list.
B1: chr18:9257137:9257239:+|CDS|ENSG00000101745|unk|FALSE|bound_elsewhere (ssRNA)
RNA: GGGAGUUCUACAGUCCGACGAUCUCUUAGGUCAUCUUCUGUAGAAGAUGUUAAACUAAUUAUAAGCGAGGGGAGACCUACCAUAGAAGUUCGAAGAUGUAGCAUGCCUUCUGUCAUUUGUGAACAUACCAAACAAUUCCAAACCAACAGAGGAUUGAGCAUCA
B2: chr10:99876058:99876159:-|3pUTR|ENSG00000107554|msi1|total|mutant (ssRNA)
RNA: GGGAGUUCUACAGUCCGACGAUCUUGAGCCUAAUGGAAGACUGGAUGUCUUUCUUCUUCAUCCAAGCACCCUAAUGACUGUUCCGUUACAUCCACCGAUGCAGACAACAUAACACCUGUGACUUACUUGAAUUGGGAUAAGCCCAACAGAGGAUUGAGCAUCA
B3: chr4:127885990:127886091:+|CDS|ENSG00000142731|msi1|total|mutant (ssRNA)
RNA: GGGAGUUCUACAGUCCGACGAUCAUUACUUAUCGGGAGACCACCCUUCGACACUGACACAGUCAAGAACACAUUAAAUAAAGCCGUAUUGGCAGAUUAUGAAAUGCCAUCUUUUUUGUCAACCGAGGCCAAGGACCUUAUUCACAACAGAGGAUUGAGCAUCA
B4: ENSG00000124766:be:win_3651|3pUTR|ENSG00000124766|bound_else_gene|NA|bound_elsewhere_windowed (ssRNA)
RNA: GGGAGUUCUACAGUCCGACGAUCUCGCUAAAUAUAAUUGUUUUAGUCUUAUGGCAUGAUGAUAGCAUAUGUGUUCAGGUUUAUAGCUGUUGUGUUUAAAAAUUGAAAAAAGUGGAAAACAUCUUUGUACAUUUAAGUCUGUAUCAACAGAGGAUUGAGCAUCA
B5: chr15:58589816:58589917:-|3pUTR|ENSG00000137845|unk|total|mutant (ssRNA)
RNA: GGGAGUUCUACAGUCCGACGAUCAUUCAUUUGCUGAAGAGCUGGCUUGUACUUUGGCAGGUGUCAUACUUGGUUAUUCUCCUCCGGAUAUUGGCCCAACAAUCUGGGAGUUGUGAAAGGCGCUUCGCUUUUCAGACCUGGGCGCAACAGAGGAUUGAGCAUCA
B6: chr12:122508217:122508450:-|three_prime_utr|ENSG00000111011|control|control|control (ssRNA)
RNA: GGGAGUUCUACAGUCCGACGAUCAGGUUCUGUUCUCAAUGUUGCUGCCCUGUUGGCAUCAGGAACACAAGUAACACCUCAGAUAGCCAUGGCAGCUCAGAUGGCAGCCCUGCAAGCUAAAGCUUUGGCAGAGACAGGAAUAGCCAACAGAGGAUUGAGCAUCA
B7: chr10:95606323:95606429:-|3pUTR|ENSG00000059573|unk|total|mutant (ssRNA)
RNA: GGGAGUUCUACAGUCCGACGAUCCCAUGGCUGCUUUGUGUCACCUCAGUGACUUACAGUCCCCCUUGGCAUUCCGUUGGUACCCGAGCCAGUCAUCCUUAACAAAUCUUUUCACAUUUUAUUUCUUUCACAUGCCGUCAUCUUCAACAGAGGAUUGAGCAUCA
B8: ENSG00000013306:stop:overlap|stop_codon|ENSG00000013306|stop_codon|NA|stop_codon (ssRNA)
RNA: GGGAGUUCUACAGUCCGACGAUCGUCCCCACCUCGGCCCAAACCCAGUCAGUCCCAGCUCCCAGCCCCAACCUCUGCCAGCCUAGGGAUAGGGGGGUGUUCUAGGUCCCCAGACCUGGGACAGCAGCCCUGUACUGGUUCAACCAACAGAGGAUUGAGCAUCA
B9: chr5:75599425:75599511:+|3pUTR|ENSG00000122008|msi1_unk|total|mutant (ssRNA)
RNA: GGGAGUUCUACAGUCCGACGAUCGAACCGCUUAAUUAAGAACUCACAGACUUUGACAAAGUGGUAACCCGACUUUUAAUUACCCGAUUCUUCAAAUCCGGCUUAAUGCCUGCCCGCAUGCCAAUCCAAUCCCAUGACUGAUGUCAACAGAGGAUUGAGCAUCA
B10: ENSG00000138760:stop:overlap|stop_codon|ENSG00000138760|stop_codon|NA|stop_codon (ssRNA)
RNA: GGGAGUUCUACAGUCCGACGAUCACCAAUCUGUUGGAGACCCUAAAAUUGACUUAAUUAGAACAUUAAAUAUUCCUGUAUUGUAGGAGAGAGUGGAUGGAGGUGCUUUGGAGGGGAUGCUGCUGUCUUAAUAUACCUCUGCUCCAACAGAGGAUUGAGCAUCA
B11: chr4:102887774:102887875:+|3pUTR|ENSG00000145354|msi1|total|mutant (ssRNA)
RNA: GGGAGUUCUACAGUCCGACGAUCUUGGUUUUGAUAAUCUGAAGUGUUUUUUUCUCGUUUUGGCCUUCCAAACUGCAUUUGGUCCGGUGAAUUAAGAAAAAUAUUGCCAUCAAGAAUUACUUGUGUUUUCACAGAGACCGACUCCAACAGAGGAUUGAGCAUCA
B12: chr2:24000049:24000165:+|3pUTR|ENSG00000173960|unk|total|mutant (ssRNA)
RNA: GGGAGUUCUACAGUCCGACGAUCGCCGCAUAUGACUGGAAACUAUAUUCAGUGCACUUUCUCCAAAAGACUACCCAGAAAAACCGACUUAUUUUCAAAUACCAGUUAUCAAGAUAUAUUAAACCGCUGUAUUGUUCCGAAUCUCAACAGAGGAUUGAGCAUCA
B13: chr15:50499066:50499164:+|CDS_3pUTR|ENSG00000138592|msi1_unk|FALSE|overlapping (ssRNA)
RNA: GGGAGUUCUACAGUCCGACGAUCUACUUCAUUGGGACCACGAGUAACUGAUGUAGCCACAUAAGGAGACAUAGGUUAUAAACUAGUUAUCUUUUAAAAGGCUCAGCAACACAACUCUUGAAAUGCUUAUCAGGAUAAUGGUAGCAACAGAGGAUUGAGCAUCA
B14: chrX:102369585:102369736:-|CDS|ENSG00000269437|control|control|control (ssRNA)
RNA: GGGAGUUCUACAGUCCGACGAUCUGCGAAAGAAGAAUGAAAUGGCAUAGUGAAGACGAAAUCCGUAUUACCACGUGGAGAAAUAGAAAACCUCCGGAGAGAAAAAUGAGUCAGAACACACAGGAUGGAUACACAAGGAACUGGCAACAGAGGAUUGAGCAUCA

target: MSI1 full-length (mouse, UniProt Q61474 1-362); test: nsRBNS (natural sequence RNA bind-n-seq); RBNS binding buffer (assumed for nsRBNS): 25 mM Tris pH 7.5, 150 mM KCl, 3 mM MgCl2, 0.01% Triton X-100, 500 ug/ml BSA, 20 U/ml SUPERase-In, 4 C; UNK is unkempt and MSI1 is Musashi-1; names of the RNAs are library labels; protein concentration not given here; high values mean tight binding
Sequence of UniProt Q61474 (Q61474 whole entry): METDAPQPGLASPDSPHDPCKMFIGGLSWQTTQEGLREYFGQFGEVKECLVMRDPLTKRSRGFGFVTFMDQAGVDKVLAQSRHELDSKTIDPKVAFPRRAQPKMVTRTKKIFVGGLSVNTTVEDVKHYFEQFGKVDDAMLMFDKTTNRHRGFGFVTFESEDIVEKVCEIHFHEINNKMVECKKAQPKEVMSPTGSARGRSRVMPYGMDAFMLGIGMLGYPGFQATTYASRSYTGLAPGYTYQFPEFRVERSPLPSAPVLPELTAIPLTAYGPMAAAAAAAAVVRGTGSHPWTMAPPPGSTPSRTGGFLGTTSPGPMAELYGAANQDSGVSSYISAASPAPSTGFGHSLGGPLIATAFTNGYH

Binder	binding signal [enrichment R]
B1	3.65
B2	0.387
B3	0.3
B4	2.43
B5	0.328
B6	0.393
B7	1.96
B8	0.534
B9	0.4
B10	0.695
B11	0.261
B12	1.54
B13	0.769
B14	0.89

Reference: PMC12136788
